# Data reported in publication PMC9911399.
# This is one part of the list.
# Molecular target: T1, RBFOX1 RRM (Homo sapiens) (UniProt Q9NWB1)
# T1 sequence: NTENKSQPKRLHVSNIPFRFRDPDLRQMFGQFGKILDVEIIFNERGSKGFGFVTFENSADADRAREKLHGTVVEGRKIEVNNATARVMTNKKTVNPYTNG
# Assay: EMSA
# Settings: HiTS-Eq, 1 nM pool, 10 min; buffer printed only for the single-RNA assays: 10 mM Tris pH 7.5, 150 mM NaCl, 3.4 mM EDTA, 0.001% NP-40, 30 C
row,Sequence,binding signal (KA relative to UGCAUGU)
1,GGGAGACCGGAAUUCAGAUUGUCCCCCCCGGUUAAAUCCCGUCGUAGCCACCA / CAATCTGAATTCCGGTCTCCC / TGGTGGCTACGACGGGATT,0.00326
2,GGGAGACCGGAAUUCAGAUUGUCCGUCUCCUUUAAAUCCCGUCGUAGCCACCA / CAATCTGAATTCCGGTCTCCC / TGGTGGCTACGACGGGATT,0.00833
3,GGGAGACCGGAAUUCAGAUUGUCCCCUCCCGUUAAAUCCCGUCGUAGCCACCA / CAATCTGAATTCCGGTCTCCC / TGGTGGCTACGACGGGATT,0.00643
4,GGGAGACCGGAAUUCAGAUUGUCCAGUCUCCUUAAAUCCCGUCGUAGCCACCA / CAATCTGAATTCCGGTCTCCC / TGGTGGCTACGACGGGATT,0.000385
5,GGGAGACCGGAAUUCAGAUUGUCCGGACCCAUUAAAUCCCGUCGUAGCCACCA / CAATCTGAATTCCGGTCTCCC / TGGTGGCTACGACGGGATT,0.00583
6,GGGAGACCGGAAUUCAGAUUGUCCCCUCCCUUUAAAUCCCGUCGUAGCCACCA / CAATCTGAATTCCGGTCTCCC / TGGTGGCTACGACGGGATT,0.00667
7,GGGAGACCGGAAUUCAGAUUGUCCCCCACCCUUAAAUCCCGUCGUAGCCACCA / CAATCTGAATTCCGGTCTCCC / TGGTGGCTACGACGGGATT,0.00453
8,GGGAGACCGGAAUUCAGAUUGUCCGGUCCUCUUAAAUCCCGUCGUAGCCACCA / CAATCTGAATTCCGGTCTCCC / TGGTGGCTACGACGGGATT,0.0341
9,GGGAGACCGGAAUUCAGAUUGUCCGCCUCCCUUAAAUCCCGUCGUAGCCACCA / CAATCTGAATTCCGGTCTCCC / TGGTGGCTACGACGGGATT,0.0274
10,GGGAGACCGGAAUUCAGAUUGUCCCCCGCCAUUAAAUCCCGUCGUAGCCACCA / CAATCTGAATTCCGGTCTCCC / TGGTGGCTACGACGGGATT,0.00676
11,GGGAGACCGGAAUUCAGAUUGUCCCCCGACAUUAAAUCCCGUCGUAGCCACCA / CAATCTGAATTCCGGTCTCCC / TGGTGGCTACGACGGGATT,0.00391
12,GGGAGACCGGAAUUCAGAUUGUCCUCCCCGAUUAAAUCCCGUCGUAGCCACCA / CAATCTGAATTCCGGTCTCCC / TGGTGGCTACGACGGGATT,0.00842
13,GGGAGACCGGAAUUCAGAUUGUCCUCCCUCCUUAAAUCCCGUCGUAGCCACCA / CAATCTGAATTCCGGTCTCCC / TGGTGGCTACGACGGGATT,0.000662
14,GGGAGACCGGAAUUCAGAUUGUCCGGCCCCAUUAAAUCCCGUCGUAGCCACCA / CAATCTGAATTCCGGTCTCCC / TGGTGGCTACGACGGGATT,0.0326
15,GGGAGACCGGAAUUCAGAUUGUCCCCCCAAAUUAAAUCCCGUCGUAGCCACCA / CAATCTGAATTCCGGTCTCCC / TGGTGGCTACGACGGGATT,0.00513
